# Reference: paper PMC4336329 (PLoS ONE, 2015)
# In all, about 310,000 compounds went through this assay and about 14,000 (4.5%) showed an effect of 50% or more. The effect is printed as a negative number. This is one part of the list.
# Molecular target: human ether-à-go-go-related gene (hERG) potassium channel (human, UniProt Q12809)
# Assay: primary screen, population patch clamp on CHO cells stably expressing hERG
# 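Also: peak tail current of the secondary pulse compared with the same well before compound.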
# Sequence of human ether-à-go-go-related gene (hERG) potassium channel (Q12809 whole entry, looked up): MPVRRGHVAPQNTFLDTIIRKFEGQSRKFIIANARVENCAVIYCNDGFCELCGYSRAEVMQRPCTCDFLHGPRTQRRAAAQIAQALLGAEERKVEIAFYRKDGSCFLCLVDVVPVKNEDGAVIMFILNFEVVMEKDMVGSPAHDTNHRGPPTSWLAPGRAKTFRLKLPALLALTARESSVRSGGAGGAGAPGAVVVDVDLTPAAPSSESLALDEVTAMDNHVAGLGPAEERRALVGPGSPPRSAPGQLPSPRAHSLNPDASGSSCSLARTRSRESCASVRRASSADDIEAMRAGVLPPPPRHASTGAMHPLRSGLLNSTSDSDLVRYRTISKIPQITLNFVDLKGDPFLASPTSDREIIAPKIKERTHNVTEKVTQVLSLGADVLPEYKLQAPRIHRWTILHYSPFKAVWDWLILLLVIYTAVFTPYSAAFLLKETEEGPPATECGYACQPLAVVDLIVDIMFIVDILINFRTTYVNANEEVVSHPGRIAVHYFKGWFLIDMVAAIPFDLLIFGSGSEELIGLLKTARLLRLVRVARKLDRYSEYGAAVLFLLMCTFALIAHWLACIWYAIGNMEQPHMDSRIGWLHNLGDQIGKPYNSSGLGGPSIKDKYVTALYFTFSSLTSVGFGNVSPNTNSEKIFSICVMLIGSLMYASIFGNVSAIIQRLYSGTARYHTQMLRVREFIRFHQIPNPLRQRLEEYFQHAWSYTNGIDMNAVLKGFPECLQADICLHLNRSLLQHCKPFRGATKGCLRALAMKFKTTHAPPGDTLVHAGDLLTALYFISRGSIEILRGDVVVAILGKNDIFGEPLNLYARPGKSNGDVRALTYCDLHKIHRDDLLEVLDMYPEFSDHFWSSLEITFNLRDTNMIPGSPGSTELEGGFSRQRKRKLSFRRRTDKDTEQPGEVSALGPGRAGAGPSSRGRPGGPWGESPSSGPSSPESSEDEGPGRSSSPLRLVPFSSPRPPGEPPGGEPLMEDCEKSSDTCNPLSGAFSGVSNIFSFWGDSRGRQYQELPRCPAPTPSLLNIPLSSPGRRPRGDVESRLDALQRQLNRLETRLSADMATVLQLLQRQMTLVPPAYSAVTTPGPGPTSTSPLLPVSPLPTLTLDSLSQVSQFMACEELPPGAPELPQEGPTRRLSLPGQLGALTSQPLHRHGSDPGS
row,SMILES,"hERG current change (%, negative = inhibition) at 10uM"
1,CN1CCN(C(=O)C23CC4CC(CC(C4)C2)C3)CC1,5.32%
2,COc1cc2c(cc1NC(=O)COC(=O)C1CC(=O)N(Cc3ccco3)C1)oc1ccccc12 (stereo not shown),11.5%
3,Cn1cc[n+](C)c1P(=S)(c1ccccc1)c1ccccc1.[Cl-],9.69%
4,CCCN1c2cccc3cccc(c23)S1(=O)=O,-8.12%
5,COc1ccccc1OCC(=O)NCCS(=O)(=O)N1CCN(c2ccccc2)CC1,-44.4%
6,CCc1cc(=O)[nH]c(SCCC(F)=C(F)F)n1,27.7%
7,CC1(C)CC(CCC(=O)NC(=S)Nc2ccccc2Cl)C(=O)O1 (stereo not shown),-3.38%
8,CCN1CCN(CCCNC(=O)CS(=O)(=O)Cc2nc(-c3cccc(OC)c3)oc2C)CC1,-4.71%
9,CN=C1CC(C)(C)CC(=O)/C1=C(/O)CCCN1C(=O)c2ccccc2C1=O,1.61%
10,O=C(CN1C(=O)c2cccnc2Oc2ccc(Cl)cc21)Nc1ccccc1F,-17%
11,Cc1ccc2c(c1)N(CC(=O)NC1CCCCC1)C(=O)c1cccnc1O2,-3.84%
12,c1ccc2c(c1)nc(NCCN1CCOCC1)c1nncn12,5.92%
13,Oc1c(CN2CCOCC2)cc(-c2ccccc2)cc1CN1CCOCC1,-12.7%
14,Cc1occc1-c1nnc(SCC(=O)Nc2ccc(F)cc2)n1C,-24.8%
15,Cc1noc(C)c1CSc1nc2ccccc2c(=O)n1-c1ccccc1,-15.9%
16,O=C(COC(=O)CNS(=O)(=O)c1ccccc1)Nc1ccc(Cl)cn1,-5.46%
17,Cc1cc(C)nc(NNC2=CC(=O)CC(C)(C)C2)n1,11.9%
18,CCN(C(=O)CN1CCOCC1)C1(C)C(=O)c2ccccc2C1=O.Cl,12%
19,CSCCC(NC(=O)c1ccccc1)C(=O)NCc1ccco1 (stereo not shown),-11.8%
20,O=C(CCC1CCCN(Cc2ccncc2)C1)NCc1ccc(F)c(F)c1 (stereo not shown),-13.6%
21,COc1ccc(CSCC(=O)NCCC(C)C)cc1,-5.91%
22,COc1cc2c(c(OC)c1OC)-c1ccc(O)cc1[C@@H](NC(C)=O)CC2,7.88%
23,O=C(NCCc1ccccn1)c1nc(Cn2cc(Br)cn2)no1,11.4%

row,SMILES,"hERG current change (%, negative = inhibition) at 10uM"
1,O=C(COC(=O)/C=C/c1ccccc1)NCC1CCCO1 (stereo not shown),16.7%
2,CN(C)/C=C(/C(=O)c1ccccc1Cl)S(=O)(=O)c1ccccc1,8.64%
3,COc1cc(/C=C(/C)[N+](=O)[O-])ccc1OCc1ccccc1Cl,17.3%
4,COc1ccc(C(=O)N[C@H](C(=O)NCc2cccs2)C(C)C)cc1,15.1%
5,CC1CC(C)CN(CCCNS(=O)(=O)c2cc(Br)cc3c2N(C(=O)C2CC2)CC3)C1 (stereo not shown),-14.6%
6,COc1ccc(CCNC(=O)c2ccc(CS(=O)(=O)c3ccc(C)cc3)o2)cc1OC,-8.2%
7,c1ccc(N2CCN(c3ncccn3)CC2)cc1,-3.68%
8,CCCCOc1ccccc1C1NC(=O)NC(C)=C1C(=O)OCc1ccco1 (stereo not shown),13%
9,c1ccc(CN2CCCC3(CCCN(Cc4nc(COc5ccccc5)no4)C3)C2)cc1 (stereo not shown),-69.3%
10,C[N+]1(CC(O)c2ccccc2)CCCCCC1.[I-] (stereo not shown),17.8%
11,O=C(NCC(=O)N1CCCC1)c1ccc(Br)cc1,16.3%
12,Cc1ccc(S(=O)(=O)N2CCN(C(=O)/C=C/c3ccco3)CC2)cc1,-35.1%
13,O=C(/C=C/Nc1cccc([N+](=O)[O-])c1)c1cccs1,-3.94%
14,CCNc1nc(NCC)nc(N/N=C/c2ccccc2)n1,4.81%
15,COc1cccc(S(=O)(=O)Nc2cccc(C(=O)N3CCCCCC3)c2)c1,-0.841%
16,C[C@H](NC(=O)NCc1cccs1)C(=O)O,5.23%
17,CCN(c1ccccc1)S(=O)(=O)c1csc(C(N)=O)c1,1.38%
18,COCCn1c(-c2ccc(OC)cc2)cnc1SCC(=O)Nc1cc(C)on1,2.53%
19,COCCn1c(COc2cccc(OC)c2)nnc1SCC(=O)N1CCOCC1,13.5%
20,C[n+]1ccc(/C=C/c2ccccc2O)c2ccccc21.[I-],2.43%
21,CCCc1cc(C(=O)Nc2ccc(Cl)cn2)cs1,3.15%
22,COc1c(C)cc(C(=O)C2CCCN(C(=O)c3cc(C)n(C)n3)C2)cc1C (stereo not shown),-20.4%
23,CN1CCC(N(C)S(=O)(=O)c2ccc(Cl)cc2)CC1,-15.6%

row,SMILES,"hERG current change (%, negative = inhibition) at 10uM"
1,COc1ccc(NC(=O)NCCc2cccc(Cl)c2)cc1OC,12.9%
2,O=C(NCc1ccc2c(c1)OCO2)c1nc(Cn2cc(Br)cn2)no1,-8.87%
3,CCCCCC(=O)Nc1cccc(C2=NOC3(C2)C[C@@H](C(N)=O)N(C(=O)CC(c2ccccc2)c2ccccc2)C3)c1 (stereo partly shown),-6.08%
4,CCN(CC)c1ccc(C(=O)OCC(=O)N2CCN(c3ccccc3)CC2)cc1,7.62%
5,O=C1/C(=C/c2ccsc2)N2CCC1CC2,6.29%
6,COC(=O)/C(C#N)=C1/C=Cc2ccccc2N1C,-2.99%
7,CC1=C(C(=O)N2CCOCC2)C(c2cccc(C)c2)NC(=S)N1 (stereo not shown),10.7%
8,CN(C(=O)c1coc(=O)c2ccccc12)c1ccccc1Cl,-8.76%
9,CC(/C=N/N1C(=O)CSC1=S)=C\c1ccccc1,17.5%
10,O=C(CN1CCN(S(=O)(=O)/C=C/c2ccccc2)CC1)NCC(F)(F)F,-7.5%
11,Cc1cc(C)cc(N=Cc2ccc([N+](=O)[O-])s2)c1,2.51%
12,O=C(NCC(c1ccco1)N1CCN(c2ccc(F)cc2)CC1)c1ccco1 (stereo not shown),-25.7%
13,Cc1nc2c(C#N)c[nH]n2c(=O)c1Cc1ccccc1,1.48%
14,COc1ccccc1C(NC(=O)CC(C)C)c1c(O)ccc2ccccc12 (stereo not shown),18.7%
15,CCOCCCNC(=O)/C(C#N)=C/c1ccc([N+](=O)[O-])o1,12.7%
16,CCC(=O)N1CCc2cc(-c3csc(NC(=O)c4ccco4)n3)ccc21,19.9%
17,CCCCC(=O)Nc1cc(OC)c(NC(=O)C2CCCCC2)cc1OC,11.5%
18,COc1ccc2nc(NC(C)=O)sc2c1,-4.83%
19,O=C(NNS(=O)(=O)c1cc(Cl)c(Cl)cc1Cl)c1cccnc1,-1.53%
20,C=CCn1c(O)c(CN2CCN(Cc3ccccc3)CC2)c(C)c(C#N)c1=O,4.17%
21,O=C(NCC1CCCO1)C1CCCN(S(=O)(=O)c2cccc3nsnc23)C1 (stereo not shown),-0.558%
22,COC(=O)CC1C(=O)NCCN1C(=O)CSc1nnc(Nc2ccc(C)cc2)s1 (stereo not shown),3.19%
23,Nc1nc(NCc2ccco2)nn1-c1ccccc1,12%

row,SMILES,"hERG current change (%, negative = inhibition) at 10uM"
1,C/C(=N/NC(=O)c1sc(NS(=O)(=O)c2ccccc2)nc1C)c1ccc(F)cc1,8.9%
2,COc1ccccc1N(CC(=O)NCCC1=CCCCC1)S(=O)(=O)c1ccccc1,-14.5%
3,CNS(=O)(=O)c1cccc(C(=O)OCCCC(=O)c2ccccc2)c1,-36.3%
4,CS(=O)(=O)N1CCc2cc(S(=O)(=O)Nc3ccc4oc5c(c4c3)CCCC5)ccc21,3.08%
5,O=C(COc1ccccc1)N1CCN(CC2CC=CCC2)CC1.O=C(O)C(=O)O (stereo not shown),-38.6%
6,COCCN(C(=O)CNC(=O)c1cccs1)C(C(=O)NC1CCCCC1)c1ccco1 (stereo not shown),-14.9%
7,Cc1cc2c(=O)n(C)c(SCC(=O)c3cc4ccccc4o3)nc2s1,11.1%
8,COc1ccc(-c2nnc(NC(=O)Cc3ccccc3)s2)c(OC)c1,17.5%
9,CCn1c(N2CCN(C(=S)NC)CC2)nc2ccccc21,-30.2%
10,COc1ccc(N2CC(C(=O)NCCC3=CCCCC3)CC2=O)c(OC)c1 (stereo not shown),-4.67%
11,Cc1ccc(Nc2nnc(SCc3cc(=O)n4ccsc4n3)s2)c(C)c1,-34.1%
12,O=C(/C(=C/O)N=Nc1cccc(C(F)(F)F)c1)c1ccccc1,16.3%
13,O=C(CSc1nncs1)NC(=O)Nc1ccc2c(c1)OCCO2,-6.17%
14,CC1(c2ccc(Cl)cc2)NC(=O)N(CC(=O)Nc2cccnc2Cl)C1=O (stereo not shown),-0.919%
15,CCOc1ccc(Br)cc1S(=O)(=O)Nc1cccc(S(=O)(=O)N(C)C)c1,-23.6%
16,CC(c1ccccc1)n1c(Cn2ncc3ccccc3c2=O)n[nH]c1=S (stereo not shown),10.9%
17,COc1ccc(OC)c(N)c1.Cl,20.5%
18,CCOc1ccc2cc(/C=C/C(=O)c3ccco3)c(Cl)nc2c1,20.1%
19,COC(=O)CCCCCCCCCC[N+]1(C)CCCCC1.[I-],-0.248%
20,CCOC(=O)Nc1ccc2c(c1)nc1n2CCN(CCOC)C1,19.9%
21,Cc1nc(N)c(C#N)c(-c2ccc3c(c2)OCO3)c1C,20.7%
22,O=C(COC(=O)/C=C/c1ccccc1)Nc1ccc(Cl)cn1,46.7%
